Experiment in all cases: protein-binding microarray (PBM)
Holding throughout (conditions): PBM: ~300 nM protein, 6 mM HEPES pH 7.8, 80 mM KCl, 0.5 mM EDTA, 0.5 mM EGTA, 6% glycerol, 35 ng/ul poly-dIdC, 1% milk, 1 h, room temperature; Ap Aiptasia and Nv Nematostella (sea anemones) / Co Capsaspora / Aq Amphimedon (sponge) / Dm Drosophila / Hu human; RHD is the Rel homology domain; high values mean tight binding; most listed sequences are background and not binding sites; double strand, one strand shown

The target in one assay is T1, GST-Ap-NF-kB RHD (UniProt A0A913YAJ5).
T1 sequence: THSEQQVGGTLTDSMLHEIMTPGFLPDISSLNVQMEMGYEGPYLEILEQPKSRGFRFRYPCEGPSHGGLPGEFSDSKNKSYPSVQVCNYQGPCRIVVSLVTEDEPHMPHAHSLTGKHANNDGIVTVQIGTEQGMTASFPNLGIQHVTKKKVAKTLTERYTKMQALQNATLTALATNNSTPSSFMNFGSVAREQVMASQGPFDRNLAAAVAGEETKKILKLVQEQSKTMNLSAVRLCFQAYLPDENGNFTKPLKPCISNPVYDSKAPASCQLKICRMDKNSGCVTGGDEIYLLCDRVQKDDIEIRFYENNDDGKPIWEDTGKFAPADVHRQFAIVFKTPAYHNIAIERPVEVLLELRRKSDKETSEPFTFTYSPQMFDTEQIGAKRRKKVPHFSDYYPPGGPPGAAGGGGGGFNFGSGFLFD

Assay [1] concerns the target T2, GST-Nv-NF-kB (Cys allele) (UniProt E5G601).
T2 sequence: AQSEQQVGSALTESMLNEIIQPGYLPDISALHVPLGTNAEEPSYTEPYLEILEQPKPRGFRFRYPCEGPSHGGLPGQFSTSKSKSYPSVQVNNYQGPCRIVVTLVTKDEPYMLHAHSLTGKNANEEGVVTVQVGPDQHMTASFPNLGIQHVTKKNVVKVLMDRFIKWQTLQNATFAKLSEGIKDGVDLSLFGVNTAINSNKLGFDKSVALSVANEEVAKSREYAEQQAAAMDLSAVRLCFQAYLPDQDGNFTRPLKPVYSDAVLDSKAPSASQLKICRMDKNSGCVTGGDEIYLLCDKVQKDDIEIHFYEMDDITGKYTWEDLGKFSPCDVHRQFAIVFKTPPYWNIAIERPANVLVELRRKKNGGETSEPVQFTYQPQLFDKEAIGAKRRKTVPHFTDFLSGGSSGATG

A further assay deals with T3, GST-Co-NF-kB (UniProt F1ARL5).
T3 sequence: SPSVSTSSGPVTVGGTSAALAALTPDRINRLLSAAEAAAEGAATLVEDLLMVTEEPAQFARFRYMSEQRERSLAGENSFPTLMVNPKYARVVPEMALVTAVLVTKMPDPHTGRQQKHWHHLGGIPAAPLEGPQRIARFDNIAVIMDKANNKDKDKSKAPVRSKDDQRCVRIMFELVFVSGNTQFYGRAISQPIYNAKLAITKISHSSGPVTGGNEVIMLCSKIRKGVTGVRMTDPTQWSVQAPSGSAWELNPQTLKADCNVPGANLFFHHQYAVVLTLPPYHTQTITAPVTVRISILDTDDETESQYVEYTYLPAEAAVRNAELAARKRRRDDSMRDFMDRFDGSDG

In the next assay the target is T4, GST-Dm-Relish (UniProt Q94527).
T4 sequence: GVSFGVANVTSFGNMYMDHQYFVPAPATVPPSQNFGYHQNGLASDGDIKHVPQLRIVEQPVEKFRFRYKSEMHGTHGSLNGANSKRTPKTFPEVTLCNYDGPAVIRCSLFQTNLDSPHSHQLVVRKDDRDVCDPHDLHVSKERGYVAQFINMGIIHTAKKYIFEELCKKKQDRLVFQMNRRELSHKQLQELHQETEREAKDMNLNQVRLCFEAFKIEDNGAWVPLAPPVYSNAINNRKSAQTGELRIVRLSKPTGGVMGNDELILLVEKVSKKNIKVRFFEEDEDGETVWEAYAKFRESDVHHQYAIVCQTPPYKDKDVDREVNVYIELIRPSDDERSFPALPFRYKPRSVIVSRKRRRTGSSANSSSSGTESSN

Only a part is listed here, and it is no random draw. The list includes weakly bound sequences.

As for “CCGATTAACATCAGGATTTTTTATGATGTTAATCGGGTCTTGATTCGCTTGACGCTGCTG”, the binding signal with GST-Ap-NF-kB RHD was 0.539 z-score; in assay [1] it was -0.459 z-score; with GST-Co-NF-kB it was -0.0669 z-score.
“CCGATTAACATCAGGACTTTACATGATGTTAATCGGGTCTTGATTCGCTTGACGCTGCTG”: the figures for the binding signal (with GST-Ap-NF-kB RHD; in assay [1]; with GST-Co-NF-kB) were 0.245 z-score, 0.0854 z-score and -0.0589 z-score, respectively.
With “CCGATTAACATCAAAGGAATTTCTGATGTTAATCGGGTCTTGATTCGCTTGACGCTGCTG”, the binding signal in the assay with GST-Ap-NF-kB RHD was 0.0876 z-score; in assay [1], 0.555 z-score; in the assay with GST-Co-NF-kB, -0.154 z-score.
In the same order, the values of “CCGATTAACATCAGGAATTTTACTGATGTTAATCGGGTCTTGATTCGCTTGACGCTGCTG” are -0.114 z-score, 0.18 z-score and 0.214 z-score.
On to “CCGATTAACATCAAATTCCCCCCTGATGTTAATCGGGTCTTGATTCGCTTGACGCTGCTG”, for which the binding signal with GST-Ap-NF-kB RHD amounted to 8.5 z-score; in assay [1], 8.77 z-score; with GST-Co-NF-kB it was 10.1 z-score.
On the same counts, the results for “CCGATTAACATCAGGAAATACCATGATGTTAATCGGGTCTTGATTCGCTTGACGCTGCTG” are 0.524 z-score, 0.818 z-score and 0.687 z-score.
On the same counts, the results for “CCGATTAACATCAAGGTTTTTCCTGATGTTAATCGGGTCTTGATTCGCTTGACGCTGCTG” are 0.393 z-score, 0.922 z-score and 0.533 z-score.
On the same counts, the results for “CCGATTAACATCAGGGGAAAGTATGATGTTAATCGGGTCTTGATTCGCTTGACGCTGCTG” are 6.56 z-score, 7.79 z-score and 7.64 z-score.
With “CCGATTAACATCAAAGGAATTCCTGATGTTAATCGGGTCTTGATTCGCTTGACGCTGCTG”, the binding signal with GST-Ap-NF-kB RHD was 0.897 z-score; in assay [1], 0.711 z-score; with GST-Co-NF-kB, 0.355 z-score.
“CCGATTAACATCAAAAAATTCCATGATGTTAATCGGGTCTTGATTCGCTTGACGCTGCTG”: the figures for the binding signal (with GST-Ap-NF-kB RHD; in assay [1]; in the assay with GST-Co-NF-kB) were 0.373 z-score, 0.184 z-score and -0.144 z-score, respectively.
As for “CCGATTAACATCAGGGCTTTCCATGATGTTAATCGGGTCTTGATTCGCTTGACGCTGCTG”, the figures for the binding signal (with GST-Ap-NF-kB RHD; in assay [1]; in the assay with GST-Co-NF-kB) were 0.986 z-score, 0.147 z-score and 0.136 z-score, respectively.
In the same order, the values of “CCGATTAACATCAGTACTTCCCATGATGTTAATCGGGTCTTGATTCGCTTGACGCTGCTG” are 1.53 z-score, 0.975 z-score and 1.42 z-score.
Turning to “CCGATTAACATCAGGACTTTCCATGATGTTAATCGGGTCTTGATTCGCTTGACGCTGCTG”, the binding signal with GST-Ap-NF-kB RHD was -0.177 z-score; in assay [1] it was 0.333 z-score; in the assay with GST-Co-NF-kB, -0.629 z-score; with GST-Dm-Relish, 3.27 z-score.
On the same counts, the results for “CCGATTAACATCAGAGCCCCCCCTGATGTTAATCGGGTCTTGATTCGCTTGACGCTGCTG” are 4.71 z-score, 3.96 z-score, 3.1 z-score and 4.58 z-score.
“CCGATTAACATCAACGGAATTTCTGATGTTAATCGGGTCTTGATTCGCTTGACGCTGCTG”: the binding signal is -0.213 z-score with GST-Ap-NF-kB RHD, 0.447 z-score in assay [1], 0.48 z-score with GST-Co-NF-kB and 0.528 z-score with GST-Dm-Relish.
As to “CCGATTAACATCAAGGATTCCCCTGATGTTAATCGGGTCTTGATTCGCTTGACGCTGCTG”, the binding signal was 9.7 z-score with GST-Ap-NF-kB RHD, 10.5 z-score in assay [1] and 6.56 z-score with GST-Co-NF-kB.
Turning to “CCGATTAACATCAAGGAAATTCCTGATGTTAATCGGGTCTTGATTCGCTTGACGCTGCTG”, the results for the binding signal (in the assay with GST-Ap-NF-kB RHD; in assay [1]; with GST-Co-NF-kB) were 0.575 z-score, 0.47 z-score and 0.829 z-score, respectively.
On the same counts, the results for “CCGATTAACATCAGGAAATTTTATGATGTTAATCGGGTCTTGATTCGCTTGACGCTGCTG” are 0.302 z-score, 0.0371 z-score and 0.3 z-score.
Regarding “CCGATTAACATCACGGGATGCCCTGATGTTAATCGGGTCTTGATTCGCTTGACGCTGCTG”, the binding signal with GST-Ap-NF-kB RHD was 1.03 z-score; in assay [1], 0.734 z-score; with GST-Co-NF-kB, -0.0517 z-score; with GST-Dm-Relish, 5.65 z-score.
Consider “CCGATTAACATCAGGGAGATTTGTGATGTTAATCGGGTCTTGATTCGCTTGACGCTGCTG”, for which the binding signal was 3.21 z-score with GST-Ap-NF-kB RHD, 4.56 z-score in assay [1] and 2.54 z-score with GST-Co-NF-kB.
In the case of “CCGATTAACATCATGAATTCCCATGATGTTAATCGGGTCTTGATTCGCTTGACGCTGCTG”, the binding signal in the assay with GST-Ap-NF-kB RHD turned out to be 1.57 z-score; in assay [1], 3.03 z-score; with GST-Co-NF-kB, 2.17 z-score.
For the sequence “CCGATTAACATCAAATTCCCGTATGATGTTAATCGGGTCTTGATTCGCTTGACGCTGCTG”, the binding signal stood at 2.44 z-score with GST-Ap-NF-kB RHD, 4.38 z-score in assay [1] and 2.65 z-score in the assay with GST-Co-NF-kB.
On to “CCGATTAACATCAGGAGTTGCCCTGATGTTAATCGGGTCTTGATTCGCTTGACGCTGCTG”, for which the binding signal with GST-Ap-NF-kB RHD turned out to be 0.285 z-score; in assay [1], 0.152 z-score; with GST-Co-NF-kB, 0.559 z-score; with GST-Dm-Relish, 0.174 z-score.
Consider “CCGATTAACATCACGGGATGTACTGATGTTAATCGGGTCTTGATTCGCTTGACGCTGCTG”, for which the binding signal with GST-Ap-NF-kB RHD is 0.791 z-score; in assay [1], -0.333 z-score; in the assay with GST-Co-NF-kB, 0.926 z-score.
On the same counts, the results for “CCGATTAACATCACGGAATTCCATGATGTTAATCGGGTCTTGATTCGCTTGACGCTGCTG” are 0.185 z-score, 0.231 z-score and -0.021 z-score.
On to “CCGATTAACATCACGGACTGCCCTGATGTTAATCGGGTCTTGATTCGCTTGACGCTGCTG”, for which the binding signal was 0.443 z-score with GST-Ap-NF-kB RHD, 0.0716 z-score in assay [1], -0.584 z-score with GST-Co-NF-kB and 0.204 z-score in the assay with GST-Dm-Relish.
Take “CCGATTAACATCAGGTCTTTCCATGATGTTAATCGGGTCTTGATTCGCTTGACGCTGCTG”: the results for the binding signal (with GST-Ap-NF-kB RHD; in assay [1]; with GST-Co-NF-kB) were 0.0246 z-score, -0.097 z-score and -0.505 z-score, respectively.
On the same counts, the results for “CCGATTAACATCAGGAAGTACCCTGATGTTAATCGGGTCTTGATTCGCTTGACGCTGCTG” are 3.65 z-score, 3.73 z-score and 0.703 z-score.

(Values after PMC5700166.)
